# Laboratory results reported in the RNAGym collection of RNA variant scans (doi:10.7554/elife.90254).
# The source gives no read counts; variants with many changes may rest on few reads.
# B1: LINE1-full (parent)
# chain: UACGUAGGUGGUUUUCCCCUGAUAGUGCUAAGGGGGCCUGGAAGUUUGGACUGGGCAGAGCUCAACACAGCGUGGCAAAGUGGCUGUGGCUAGACUGCCUCUCUGGAUUCCUCGUCACUCAGCAGGGCAUCUCUGAGAGAAAUGCC
# Variants of: B1
# Experiment: self-cleavage, relative activity (ratio to wild type); higher = more cleavage; in vitro, sequencing; the parent is a self-cleaving ribozyme
row,Variant,self-cleavage
1,A31U A43G A65U U73C A121G,0
2,A31U A50G A59G A64U,0
3,A31U A57U A121G,0.12
4,A31U A57U U96A A141G,0.5
5,A31U A57U U108A,0.11
6,A31U A59G C145U,0
7,A31U A59U A67G C116U,0.34
8,A31U A59U G89U,0.01
9,A31U A65G A136G,0
10,A31U A65G U81A U143A,0.06
11,A31U A65G U87A A107G,0.17
12,A31U A67U A142G U143C,0.07
13,A31U A77U A79G U115C C120U A141G,1.12
14,A31U A78G U134C,0.63
15,A31U A117G A136G A140U,2.36
16,A31U C101U U102C,0.59
17,A31U G33A U91C U102C,0.6
18,A31U G34C A92G U134A,0.3
19,A31U G34U U85A A136G,0.14
20,A31U G36A A59G U104A U112C,0.03
21,A31U G48A U100C C116U G125U,1.81
22,A31U G70A U87A,0.05
23,A31U G89U A121C,0.02
24,A31U G114A C120U A141G,0.59

row,Variant,self-cleavage
1,A31U U39A A121G,0.61
2,A31U U39C A57G,0
3,A31U U39C U85C,0.62
4,A31U U45A A69G A138G,0.4
5,A31U U45A C145U,1.3
6,A31U U45A U81C U87C,0
7,A31U U45C C103U U104C,0.6
8,A31U U45C U115C A138U A140G,0.92
9,A31U U62C G89A,0.08
10,A31U U62C U91C U96A G127A A142G U143C,0
11,A31U U62C U96A A121G,0.04
12,A31U U73C A121U,1.97
13,A31U U73C C76U U134C,1.86
14,A31U U81C U96C,0.25
15,A31U U85C A121G A140G,0.26
16,A31U U87C A117C,0.61
17,A31U U96C U104A,0.1
18,A31U U96C U143A,0.16
19,A31U U100C U143C,2.07
20,A31U U102C C133U A141G,1.15
21,A31U U119C A136G A140G,1.68
22,A31U U119C A142G,2.19
23,G32A A42U A136G,1.22
24,G32A A43G A78U U81A,2.46

row,Variant,self-cleavage
1,G32A A43G U100C A136G,1.05
2,G32A A57G U115C A138U,2
3,G32A A57U A77G,0.17
4,G32A A59U A64U U85C C90U A136G,0.04
5,G32A A69G C71U U112C A129G,0
6,G32A A69G U112C A121G,0.42
7,G32A A78G C128U U130G A140G,1.21
8,G32A A78G U104A,1.25
9,G32A A94G U96A G122C,0.03
10,G32A C38U C68U U102A A124G,0.14
11,G32A G54U A121G,1.5
12,G32A G74A U104C U130C,1.04
13,G32A G114U A129G U143A,0.94
14,G32A U39C A50G,0.96
15,G32A U39C A59U,0.54
16,G32A U39C U85C U104A,0.23
17,G32A U39C U132C,1.05
18,G32A U45A U109A,1.34
19,G32A U47A U85C A107U,0.1
20,G32A U47A U112C,0.67
21,G32A U47C A50G A69U U96C,0
22,G32A U47C A78G,1.47
23,G32A U62C A69G,0.28
24,G32A U81A C90A U96A U119C,0.06

row,Variant,self-cleavage
1,G32A U81A U119C A141G,2.03
2,G32A U96A A136G,0.04
3,G32A U96A C128A,0
4,G32A U96A U104C U115C A140C,0.2
5,G32A U100C A117G A129G,1.53
6,G32A U119C A124U A142G,2.17
7,G32C A50G G55U,0.08
8,G32C A77G A92U,0.92
9,G32C A94G U132A,0.51
10,G32C G34A C61U A117G,0.09
11,G32C G54A A57U U62C,0.05
12,G32C U45A U115C,1.69
13,G32C U45C C71U A94G A124G,0
14,G32C U47C G97A,0.3
15,G32U A42G A65U A77G U108C,1.02
16,G32U A43G U81C,1.77
17,G32U A67G G75A,0.28
18,G32U A78U U108C U134C A141G,2.75
19,G32U A79G U100C A117U,2.73
20,G32U A92G A129U,0.07
21,G32U A94G U143A,0.36
22,G32U G33A U108C,0.84
23,G32U G60U A77C,0
24,G32U U47A A57G U119C,0.94

row,Variant,self-cleavage
1,G32U U47C A65C,0.1
2,G32U U62A U91C,0.01
3,G32U U62C U143A,0.1
4,G32U U73C U91A,0.81
5,G32U U81C G88A U100C,0.04
6,G32U U102C U115C A124U,1.9
7,G33A A43U U109C G125U,1.43
8,G33A A50G U62C U102C,0
9,G33A A50G U115C A141G,1.15
10,G33A A59G U104C,0.07
11,G33A A64G A77G,0.35
12,G33A A67G C68U,0.09
13,G33A A78G U108C U115C A124U,1.15
14,G33A C37U A43U A77G U102A G126A A141G,2.23
15,G33A C61U A64C A67U,0.08
16,G33A G35U A42G A65G A78U G88A U100C,0.01
17,G33A G36A U47C A140G,1.1
18,G33A G44A A79G C145U,1.42
19,G33A G48A U143A,1.03
20,G33A G74A U115A,1.25
21,G33A U46C U112C A124G,0.18
22,G33A U46C U132A,1.48
23,G33A U47C A59G U102C,0
24,G33A U47G U96C U104C,0.14

row,Variant,self-cleavage
1,G33A U52C U85C A94U G105U,0.08
2,G33A U62C U96A A124G G135A,0.04
3,G33A U73A A78G C99A U112C U115C,0.24
4,G33A U73C G126A,1.51
5,G33A U108C U115A,1.66
6,G33A U112C A117C A141G,2.73
7,G33C A65U U119C,0
8,G33C U47A U104G A136G,1.58
9,G33C U109C A117U,1.53
10,G33U A43C U47C,1.72
11,G33U A50G A141G,1.47
12,G33U A64G C146U,0.12
13,G33U G54U A57G C103A A124G,0.06
14,G33U G114A U143A,1.03
15,G33U U45A U47A,1.31
16,G33U U46C A57U A141G,0.54
17,G33U U46C U102C,2.37
18,G33U U81C U85C A141G,0.1
19,G33U U85C C113U A117G,0
20,G34A A42G A50U U91A A92G A129U,0.1
21,G34A A43G U112A A129G,1.17
22,G34A A57G C101U U108C,1.39
23,G34A A57G U91A U102C G105A,0.18
24,G34A A59G A77U U104A,0.06

row,Variant,self-cleavage
1,G34A A59U G74A U115A,0.56
2,G34A A67G A107U A117C,0.21
3,G34A A69U U91C A142G,0.06
4,G34A A94G U102C U104A A117G,0.54
5,G34A A121U A124U,1.21
6,G34A G48A A78G U108C,1.67
7,G34A G49A U102A,0.15
8,G34A G72A U85C C95U U130A,0.02
9,G34A U46C G75C,0.64
10,G34A U47A U96C,0.09
11,G34A U47C U73C U112C U130A,2.72
12,G34A U52A A64G A67U C128A,0.03
13,G34A U52A U100A,1.1
14,G34A U62A A64G U109C A129G,0.14
15,G34A U62C U96C U109C,0.04
16,G34A U62G A136G,0.06
17,G34A U73A U104A,1.42
18,G34A U73C A79G,1.75
19,G34A U85C A136G A142G,0
20,G34A U85C U130C A141G,0.28
21,G34A U91C U96C U104C,0.28
22,G34A U102A A141G,1.14
23,G34A U104C U119C G125A,0.67
